Among all 50,000 compounds or so, about 800 (1.6%) showed an effect of 50% or more. The list shows a part of the results.

For this assay, the target named is Bcl-2-like protein 10 (Homo sapiens) (UniProt Q9HD36). Put plainly: Phenotype converters, Bcl-B/TR3 peptide binding displacement, primary biochemical FP (AID 1240).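 Also: 0% = Bcl-B with tracer peptide and DMSO and 100% = tracer peptide lacking Bcl-B.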 The note with it: GST-Bcl-B / FITC-TR3 peptide fluorescence polarization; stronger effect = higher value; compound at 3.75 mg/L.
Chain of UniProt Q9HD36 (Q9HD36 whole entry, looked up): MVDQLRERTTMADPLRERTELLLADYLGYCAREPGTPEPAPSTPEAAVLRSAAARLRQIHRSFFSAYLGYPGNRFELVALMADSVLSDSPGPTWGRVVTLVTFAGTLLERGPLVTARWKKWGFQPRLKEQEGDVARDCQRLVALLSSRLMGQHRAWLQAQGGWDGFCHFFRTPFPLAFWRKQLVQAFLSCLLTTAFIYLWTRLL
Turning to `COc1ccc(NC(=O)C2CCCN(CCCc3ccccc3)C2)cc1OCC(C)C` (configuration not stated), the displacement is -1.7%.
The same measure for `COc1cccc(C2Nc3ccccc3NC3=C2C(=O)CC(c2ccccc2Cl)C3)c1OC` (configuration not stated): 18.2%; for `CCCCN(C(C)=O)c1ccc(C(=O)O)cc1`: 12%; for `CCCOc1ccc(C(=O)N2CCc3ccccc32)cc1`: -8.5%.
The same measure for `CCc1ccc(N2CC(C(=O)Nc3ccccc3F)CC2=O)cc1` (configuration not stated): 5.1%; for `CC(=O)Oc1ccc(-c2cccc(C(=O)NCc3ccccc3)c2)cc1`: 3.8%.
The same measure for `CCC(Oc1ccccc1)C(=O)Nc1ccc(S(N)(=O)=O)cc1` (configuration not stated): -0.9%; for `CCC1(c2ccccc2)NC(=S)N(c2ccc(C)cc2)N1` (configuration not stated): -15.2%; for `O=C(c1ccc(-c2ccccc2)cc1)N1CCN(Cc2ccccn2)CC1`: -23.9%.
With `CCCCCCn1cnn2c(=O)cc(C)nc12`, the displacement is 11.1%.
The same measure for `COc1ccccc1N1C(=O)NC(=O)/C(=C/c2ccc(Br)s2)C1=O`: 10.6%; for `CCNC(=O)NC1C(NC(=O)NCC)N(C)C(=O)N1C` (configuration not stated): 7.1%; for `O=P(Cc1ccccn1)(c1ccccc1)c1ccccc1`: -4.7%.
With `CCCCNCCCOc1cc(Cl)ccc1Cl` the figure was 6.5%; with `CC1=NN(C(=N)c2ccccc2)C(O)(c2ccccc2)C1` (configuration not stated), -2.8%; with `CCCN1C(=O)c2ccccc2NC1c1ccc(Cl)cc1` (configuration not stated), 11.4%.
The same measure for `Cc1sc(NC(=O)CN2C(=O)c3ccccc3C2=O)nc1-c1ccccc1`: 6.1%; for `CC1(C)CC(NCC(=O)OC2CCCCC2)CC(C)(C)N1`: 12.1%; for `COc1cc(NC(=O)c2ccc3c(c2)C(=O)N(c2ccccc2OC)C3=O)c(C(=O)O)cc1OC`: -0.6%.
Take `Cc1ccc(N2NC(=O)/C(=C\c3cccc([N+](=O)[O-])c3)C2=O)cc1`: the displacement turned out to be 0.6%.
Take `Cc1onc(-c2c(F)cccc2Cl)c1C(=O)N1CCN(c2ccccn2)CC1`: the displacement is -9.8%.
As to `O=C(O)C1C2CCC(O2)C1C(=O)NCc1cccs1` (configuration not stated), the displacement was found to be 6.3%.
In the case of `COc1ccc(C(=O)Nc2cc(C)nc3ccccc23)cc1OC`, the displacement is -5.8%.
The same measure for `COC(=O)C1=CNC=C(C(=O)OC)C1c1cccc(OC)c1`: 1.2%; for `COc1cc(/C=N/N2C(=O)CSC2=S)ccc1O`: -22.5%.
With `Cc1cccc(OC(=O)C#Cc2ccccc2)c1` the figure was 4.5%; with `O=C(Nc1ccccc1C(=O)NCc1ccccc1)c1ccccc1F`, 0.8%.
As for `CCOCCOC(=O)c1ccc(NC(=O)COc2c(C)cccc2C)cc1`, the displacement was 13.5%.
Turning to `CCC1=NN(C(=O)c2ccc([N+](=O)[O-])cc2)C(O)(c2ccncc2)C1` (configuration not stated), the displacement came out at 15.8%.
Regarding `CCSc1nnc(NC(=O)/C=C/c2ccc(Cl)cc2)s1`, the displacement came to 12.4%.
The same measure for `COc1ccc(Cc2noc(-c3ccccc3Cl)n2)cc1`: -5.3%; for `CCCCOc1cccc(C(=O)Nc2ccc(C(=O)OCCC)cc2)c1`: -11.3%.
With `CCOc1cc(C(=O)Nc2cccc(C)c2C)cc(OCC)c1OCC` the figure was 0.4%; with `O=C(/C=C/c1cccc([N+](=O)[O-])c1)NCCc1ccccc1`, -5.7%; with `Cc1ccc(N(CC(=O)N2CCOCC2)S(C)(=O)=O)cc1Cl`, -6.4%.
With `O=C(Nc1cccc(Br)c1)c1ccc(N2C(=O)c3ccccc3C2=O)cc1` the figure was 13.2%.
For the molecule `O=C(O)c1cc(C(=O)O)cc(S(=O)(=O)Nc2ccc(Cl)c([N+](=O)[O-])c2)c1`, the displacement amounted to 3.2%.
The same measure for `COc1ccc(C2CC(=O)C3=C(C2)NC(C)=C(C(=O)OCCc2ccccc2)C3c2ccncc2)cc1` (configuration not stated): -6.9%; for `O=C(Nc1ccc([N+](=O)[O-])c(NC(=O)c2cccs2)c1)c1cccs1`: -4.2%; for `CCCc1cc(C(=O)OC)c(NC(=O)c2c(F)cccc2F)s1`: 1%.
With `CCOC(=O)c1c(C)nn2c1NC(c1ccc(Cl)cc1)CC2C(F)(F)F` (configuration not stated) the figure was 9%; with `O=C(NC1CCCC1)c1ccc(CN(c2ccccn2)S(=O)(=O)c2ccccc2)cc1`, 2.1%; with `COc1ccc(S(=O)(=O)N2CCN(C(=O)c3ccccc3F)CC2)cc1`, -13.5%.
Take `CC(C(=O)c1ccc(Cl)cc1)[n+]1ccccc1` (configuration not stated): the displacement is 2.8%.
With `COc1ccccc1OC(=O)Nc1ccc(Cl)cc1` the figure was 0.6%.
With `O=C(Nc1ncc([N+](=O)[O-])s1)c1ccc2c(c1)C(=O)N(CC1CCCO1)C2=O` (configuration not stated) the figure was -4.5%; with `O=C(CSc1nc2ccccc2[nH]1)Nc1ccc(/C=C/c2ccccc2)cc1`, 3%.
For the molecule `COc1ccc(/C=C/C(=O)Nc2ccc(F)cc2)cc1OC`, the displacement is -6.9%.
As to `O=C(NN1C(=O)/C(=C/c2cccc(O)c2)SC1=S)c1ccc([N+](=O)[O-])cc1`, the displacement stood at 0.8%.
The same measure for `CC1(C)CC(NC(=O)CC#N)CC(C)(C)N1`: 5.6%; for `COc1ccc(N(CC(=O)Nc2cccc(Br)c2)S(=O)(=O)c2ccccc2)cc1Cl`: 12.6%.
As for `CCCC12C(=O)C(C)(C(c3ccccc3)=C1c1ccccc1)C1C(=O)N(c3cccc(Cl)c3)C(=O)C12` (configuration not stated), the displacement was 15%.
Take `O=C(NNC(=O)c1ccco1)C(=O)N1CCCC1`: the displacement worked out at 1.4%.
The same measure for `CCOc1ccc(N2C(=O)NC(=O)/C(=C\c3ccc(OC)cc3C)C2=O)cc1`: -25.9%; for `COc1ccc2nc(SCC(=O)Nc3ccc4c(c3)C(=O)c3ccccc3C4=O)[nH]c2c1`: 8.9%.
The same measure for `COC(=O)c1ccccc1NC(=O)C1CN(S(=O)(=O)c2ccccc2)CCN1S(=O)(=O)c1ccccc1` (configuration not stated): 0%; for `COc1ccc(/C=C2\SC(=O)N(CCC(=O)Nc3ccccc3C)C2=O)cc1OC`: 79.4%; for `COc1ccc(/C=C/C(=O)NCCSCc2ccc(Cl)cc2)cc1`: -6.3%.
As for `Nc1nc(O)c(C2=c3cc(Cl)ccc3=NC2=O)s1`, the displacement was -7.1%.
Take `O=C(c1ccc(Cl)cc1Cl)N1CCN(c2ccc(Cl)cc2)CC1`: the displacement is -0.9%.
For the molecule `O=[N+]([O-])c1ccc(-n2nncc2-c2ccccc2)cc1`, the displacement was -4%.
In the case of `CCCC(=O)Nc1nnc(-c2cccc(OCC)c2)s1`, the displacement stood at 1.3%.
The same measure for `COc1ccc(CC(=O)NNC(=O)c2ccccc2Cl)cc1OC`: -14.1%; for `COc1ccc(NC(=O)NS(=O)(=O)c2ccc(C)cc2)c(OC)c1`: -1.8%.
On to `O=C(Nc1ccccc1C(=O)NCCCO)c1ccccc1`, for which the displacement was found to be 14.6%.
With `COc1ccc(/C=C(\NC(=O)c2ccc(C)cc2)C(=O)NCCCN2CCOCC2)cc1OC` the figure was 8.8%; with `CCOc1ccccc1NC(=O)c1c(N)sc2c1CCCCC2`, -15.6%.
Turning to `O=C(CN(c1ccccc1)S(=O)(=O)c1ccccc1[N+](=O)[O-])Nc1ccccc1Br`, the displacement is -1.2%.
For `Cc1cccc(N2C(=O)c3ccccc3C2=O)n1`, the displacement came out at 15.4%.
The same measure for `COc1ccc(C2NC(=O)NC(C)=C2C(=O)Nc2cc(Cl)ccc2C)cc1OC` (configuration not stated): 12%.
For `COc1ccc(Br)cc1C(=O)Nc1ccc2oc(-c3ccccc3)nc2c1`, the displacement was -2.9%.
The same measure for `Cc1ccc(S(=O)(=O)N(CC(=O)Nc2ccc(F)cc2)Cc2ccccc2)cc1`: -12.1%; for `O=C(Cc1ccc(Cl)cc1)c1ccc2c(c1)OCCO2`: 2.8%.
The same measure for `Cc1ccc(S(=O)(=O)N(CC(=O)Nc2ccccc2F)c2cccc(Br)c2)cc1`: -10.5%.
The same measure for `C#Cc1cccc(NC(=O)c2cccc(N3C(=O)c4ccc(Oc5cccc([N+](=O)[O-])c5)cc4C3=O)c2)c1`: 5.1%; for `CC(=O)c1ccc(NC(=S)NC(NC(=O)c2ccc(Cl)cc2Cl)C(Cl)(Cl)Cl)cc1` (configuration not stated): 12.1%.
`COc1ccc2oc(=O)c(C(=O)Nc3ccc(C)cc3C)cc2c1`: the displacement is 5.3%.
The same measure for `COc1ccc(NC(=O)C(=O)NCC(C)C)cc1Cl`: 8.5%.
On to `COc1ccccc1NC(=O)C1=C(C)NC(=S)NC1c1ccc([N+](=O)[O-])cc1` (configuration not stated), for which the displacement was -3.2%.
With `O=C(COc1ccc2c(-c3ccccc3)cc(=O)oc2c1)OCc1ccccc1`, the displacement amounted to 10.1%.
`CCCOc1cccc(C(=O)Nc2ccc3c(c2)OCCO3)c1`: the displacement is -12.5%.
For `CCCCCCCCS(=O)(=O)c1sc2nc(C)cc(C)c2c1N`, the displacement was -6.7%.
`Clc1ccc(-c2noc(C(c3ccccc3)c3ccccc3)n2)cc1`: the displacement was 8.1%.
On to `COC(=O)c1c(C)oc2ccc(OCc3ccccc3Br)cc12`, for which the displacement was 9.3%.
As to `CC(C)CNC(=O)c1ccccc1NC(=O)C(c1ccccc1)c1ccccc1`, the displacement is 12.6%.
The same measure for `COc1ccc(/C=C2\SC(N3CCCCCC3)=NC2=O)cc1OC`: -1.9%; for `Cc1ccc(C(=O)N2CCN(S(=O)(=O)c3ccccc3[N+](=O)[O-])C2)cc1`: 20%; for `C=CCN1C(=O)/C(=C\c2cccc(OC)c2)SC1=Nc1ccccc1`: 4.6%.
With `CCn1nnnc1-c1ccc(OC)c(S(=O)(=O)Nc2ccc(Cl)cc2)c1` the figure was 9.3%.
With `O=C(Nc1cc(C(F)(F)F)ccc1Cl)c1nc2nc(-c3ccccc3)cc(C(F)(F)F)n2n1` the figure was 9.6%.
For the molecule `COc1cc2c(cc1OC)C(CC(=O)Nc1ccc(C)cc1C)=NC(C)(C)C2`, the displacement was determined as 15.7%.
On to `Cc1c(Cl)cccc1NC(=O)C(=O)NCCCO`, for which the displacement amounted to 3.9%.
With `COC(=O)c1c(N)sc(C(=O)Nc2ccccc2C)c1C`, the displacement was -3.8%.
With `O=C(Nc1ccccc1)C12CC3CC(CC(C3)C1)C2`, the displacement amounted to 17.4%.
The same measure for `CC1CCCN(Cc2c(O)ccc3cc(-c4nc5ccccc5[nH]4)c(=O)oc23)C1` (configuration not stated): 106%; for `COc1cc(C=Nc2ccc(-c3ccc(N=Cc4ccc(OC(C)=O)c(OC)c4)c(C)c3)cc2C)ccc1OC(C)=O`: 11.2%; for `Cc1nnc(NC(=O)CN2C(=O)/C(=C/c3cccc(Br)c3)SC2=S)s1`: 9.6%.
With `O=C1NN(c2ccccc2)C(=O)/C1=C/c1ccc(-c2ccc(C(=O)O)cc2)o1`, the displacement is 29.5%.
Take `C=C(C)CNC(=S)Nc1sc(CC)cc1C(=O)OCC`: the displacement turned out to be 1.8%.
The same measure for `O=C(O)CCn1c(=O)c2cc3c(=O)n(CCC(=O)O)c(=O)c3cc2c1=O`: -3.8%; for `COc1ccc(CNC(=O)c2nn3c(c2Cl)NC(c2ccco2)CC3C(F)(F)F)cc1` (configuration not stated): 8.3%; for `CCOc1ccc(S(=O)(=O)n2cnc3cc([N+](=O)[O-])ccc32)c2ccccc12`: 0.4%.
The same measure for `O=C(NN1C(=O)/C(=C/c2ccc(O)c(O)c2)SC1=S)c1ccc(Br)cc1`: 29.8%.
With `COc1ccc(/C(C)=N/NC(=O)CN(c2ccc(C)cc2)S(=O)(=O)c2ccccc2)cc1OC` the figure was 3.8%.
With `Nc1ncnc2c1[nH]c(=S)n2[C@@H]1O[C@H](CO)[C@H](O)C1O` (some centres not stated), the displacement was -9.4%.
As to `COc1ccc(C2Nc3ccccc3C(=O)N2c2ccc(Cl)cc2)cc1OC` (configuration not stated), the displacement turned out to be 9.9%.
As to `O=C(c1ccc(-c2ccccc2)cc1)N1CCNCC1`, the displacement was -15.8%.
